# The full ranking holds about 110,000 compounds; the median of “z-score” is about -0.1, and the highest 2% start at about 2. This is one part of the list. Calls of active or inactive are those of the source.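 Rule for the calls: active = z-score in the third read window above 3 or below -3; inactive = the rest.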
# Biological target: Metabotropic glutamate receptor 8 (Rattus norvegicus) (UniProt P70579)
# Test: rat mGluR8 modulators via GIRK flux, primary screen, cell-based, thallium flux, HTS (AID 488969)
# Details: HEK293 rat mGluR8, GIRK (G protein-gated inwardly rectifying potassium channel) thallium flux, FluoZin2; at 10 µM; stronger effect = higher value; submaximal glutamate (EC20) added with thallium
# Chain of UniProt P70579 (P70579 whole entry, looked up): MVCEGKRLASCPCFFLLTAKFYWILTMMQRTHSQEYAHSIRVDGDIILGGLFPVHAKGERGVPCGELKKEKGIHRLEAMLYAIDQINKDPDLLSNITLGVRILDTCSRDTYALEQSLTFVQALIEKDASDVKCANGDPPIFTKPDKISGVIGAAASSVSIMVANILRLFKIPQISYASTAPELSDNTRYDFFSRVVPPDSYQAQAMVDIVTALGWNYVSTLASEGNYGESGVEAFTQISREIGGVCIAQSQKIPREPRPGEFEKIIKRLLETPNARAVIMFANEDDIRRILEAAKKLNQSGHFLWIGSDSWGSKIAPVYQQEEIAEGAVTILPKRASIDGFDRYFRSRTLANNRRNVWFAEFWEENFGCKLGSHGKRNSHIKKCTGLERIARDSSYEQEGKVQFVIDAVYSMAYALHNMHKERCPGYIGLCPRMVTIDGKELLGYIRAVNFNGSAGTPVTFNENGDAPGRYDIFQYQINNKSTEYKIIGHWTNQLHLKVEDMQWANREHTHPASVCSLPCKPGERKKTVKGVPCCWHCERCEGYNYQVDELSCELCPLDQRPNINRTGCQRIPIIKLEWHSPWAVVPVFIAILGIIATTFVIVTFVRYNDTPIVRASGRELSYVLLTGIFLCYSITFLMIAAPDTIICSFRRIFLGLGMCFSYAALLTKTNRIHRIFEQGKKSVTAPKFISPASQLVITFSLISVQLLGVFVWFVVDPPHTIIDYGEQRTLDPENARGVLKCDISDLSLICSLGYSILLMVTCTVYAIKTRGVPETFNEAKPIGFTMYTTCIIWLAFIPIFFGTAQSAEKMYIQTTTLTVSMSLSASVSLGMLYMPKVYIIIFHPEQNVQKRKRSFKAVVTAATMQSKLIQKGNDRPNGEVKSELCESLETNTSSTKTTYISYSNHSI
row,Compound,z-score
1,CCN1CCN(Cc2oc(CO)cc(=O)c2O)CC1,-0.236
2,O=C(Cn1cnc2c(nnn2Cc2ccc(F)cc2)c1=O)NCc1ccco1,-0.298
3,COc1ccc(OC)c(NC(=O)CSc2nc3ccccc3c3nc4ccccc4n23)c1,-0.122
4,CCOC(=O)C(C)Sc1nc(C2CC2)cc(C(F)(F)F)c1C#N (stereo unspecified),1.1
5,COC(=O)c1c(NC(=O)COC(=O)[C@@H](NS(=O)(=O)c2ccccc2)C(C)C)sc2c1CCC2,0.129
6,Cc1nnc(NC(=O)CSc2nc3ccccc3o2)s1,0.0274
7,COc1ccc2cc(CCNC(=O)C3CC3)c(=O)[nH]c2c1,0.115
8,CCCOC(=O)c1ccc(NC(=O)c2cc(Cl)ccc2OC)cc1,-0.0866
9,Nc1c(-c2ccccc2Cl)cnn1-c1cccc([N+](=O)[O-])c1,-0.243
10,CC(C)N1CC(O)=C(c2nc3ccccc3[nH]2)C1=N,0.0228
11,Cc1nnc(SCC(=O)Nc2ccccc2N2CCOCC2)s1,-0.0127
12,C=C1CSc2nc3ccccc3c(=O)n21,0.0912
13,CCCCc1ccc(NC(=S)Nc2ccc(Cl)c(S(=O)(=O)N(C)C)c2)cc1,active: 5.93
14,COc1cccc(-n2nc(-c3ccnn3-c3ccc(C)cc3)c(=O)n(C)c2=O)c1,-1.29
15,Cc1nnc(-n2cnc3ccccc32)c2ccccc12,-0.132
16,Cc1cc(C(=O)CSc2nnnn2-c2ccc(Cl)cc2)c(C)n1CC1CCCO1 (stereo unspecified),-1.51
17,CCNC(=O)/C(C#N)=C/c1c(N2CCOCC2)nc2ccccn2c1=O,-0.125
18,CCOC(=O)c1ccc(NC(=O)Nc2ccn(C)n2)cc1,0.403
19,COc1cccc(Cn2nnc(C(=O)NCc3ccc(F)cc3)c2N)c1,-0.899
20,O=C(CN1CCN(CCOCCO)CC1)N1c2ccccc2Sc2ccc(Cl)cc21,-0.0439
21,Cn1cc(Cl)c(C(=O)NC2CCCC2)n1,0.534
22,OCCN=C(c1ccccc1)C12CN3CN(CN(C3)C1)C2,-0.677
23,CCOC(=O)c1[nH]c(C)c(C(=O)NCc2ccc(C)cc2)c1C,-0.482

row,Compound,z-score
1,COCCN(C(=S)Nc1ccc(OC)cc1)C(C)c1cccs1 (stereo unspecified),-0.321
2,Cc1ccc(-c2nnc(Nc3ccc(C(N)=O)cc3)c3ccccc23)cc1S(=O)(=O)NCC1CCCO1 (stereo unspecified),-2.16
3,CC1CCc2nc(NC(=O)Nc3ccc4c(c3)OCO4)sc2C1 (stereo unspecified),-0.337
4,Nc1nc(Cl)nc2ccc(Br)cc12,-0.0458
5,CCOC(=O)N1CCC(N(CCN(C)C)C(=S)Nc2cccc(Cl)c2C)CC1,0.0224
6,COc1cccc(CNc2cnc3ccccc3c2)c1O,-0.377
7,CN(C)S(=O)(=O)c1ccc(C(=O)Nc2nnc(SCc3cccc4ccccc34)s2)cc1,-0.381
8,Cc1cccc(NC(=S)c2nc3ccccc3s2)c1,0.84
9,O=C(Nc1ccc(Cl)c(Cl)c1)N(Cc1cccnc1)Cc1ccco1,-0.687
10,COC(=O)c1ccccc1NC(=O)C12CCC(C)(C(=O)O1)C2(C)C (stereo unspecified),-0.229
11,CC1Cc2ccccc2N1C(=S)NC(=O)c1ccc(Cl)cc1Cl (stereo unspecified),active: 13.5
12,O=C1CCC(=O)N1c1ccc(NCc2ccccc2Cl)c([N+](=O)[O-])c1,-0.118
13,CC(C)CNC(=S)NC1CCCC1,-0.161
14,C=CCOc1ccc(CNC(C)(C)C)cc1OC,-0.186
15,O=C(Nc1cccnc1)Nc1ccc2c(c1)OCO2,-0.301
16,CN(c1ccccc1)S(=O)(=O)c1cccc(C(=O)Nc2ccc3c(c2)CCC3)c1,-0.298
17,O=S(=O)(c1ccc(Cl)cc1)N1CCCC1c1nc(-c2ccc(Cl)cc2)no1 (stereo unspecified),-0.129
18,C=CCNC(=O)/C(C#N)=C/c1c(C)nn(-c2ccccc2)c1Cl,-0.527
19,COc1ccccc1OCC(=O)Nc1ccc(O)cc1C(=O)O,0.0858
20,COc1ccc(NC(=O)CN2C(=O)c3cccc4cccc2c34)c(OC)c1,-0.896
21,O=C1CC(c2nc3ccccc3[nH]2)CN1c1ccccc1F (stereo unspecified),0.118
22,CCN(CC)C(=O)C1CCCN(Cc2ccc3c(c2)OCO3)C1 (stereo unspecified),0.126
23,c1ccc2[nH]c(SN3CCOCC3)nc2c1,0.258

row,Compound,z-score
1,Cc1ccc(C(=O)/C=C/c2ccc(F)cc2)o1,-0.0458
2,O=C(/C=C/c1ccc(Cl)cc1)N(c1ccccn1)C1CCCCC1,0.501
3,COc1cc(OC)cc(C(=O)Nc2c(F)cccc2F)c1,1.78
4,O=S(=O)(c1ccc2oc3ccccc3c2c1)N1CCCC1,-0.0188
5,Cc1ccc(Nc2nc(C(=O)NCCCN3CCOCC3)cs2)cc1,-0.316
6,O=C(NC1CCCCC1)N1CCCC(c2nc(-c3cccs3)no2)C1 (stereo unspecified),-0.174
7,c1ccc(Nc2nc(-c3ccncc3)nc3ccccc23)cc1,-0.181
8,COc1cccc(CNC(=O)C2CCN(S(=O)(=O)N3CC(C)CC(C)C3)CC2)c1 (stereo unspecified),0.0737
9,Cc1ccccc1OCCCC(=O)Nc1nccs1,2.49
10,C=CCSc1nc2ccccc2n1C(=O)/C=C/c1cc(OC)c(OC)c(OC)c1,-0.288
11,Cc1ccc(Cn2nnc3c(=O)n(Cc4cc(C)ccc4C)cnc32)cc1,0.531
12,Cn1cccc1C(=O)C(=O)Nc1cc(Cl)cc(Cl)c1,-0.161
13,CCN(C(=O)COc1cc(=O)n(CC)c2ccccc12)c1cc(Cl)ccc1OC,-0.433
14,CCOC(=O)N1CCN(CC(O)COC2CC(C)CCC2C(C)C)CC1 (stereo unspecified),0.0251
15,CC1(C)OC(=O)N(c2ccccc2)C12C=Cc1c(ccc3ccccc13)O2 (stereo unspecified),-0.377
16,Cc1cc(NS(=O)(=O)c2ccc(Cl)cc2)nn1CC(=O)NCc1ccco1,-0.0635
17,CC(=O)c1cc(-c2ccccc2)n(CC(=O)Nc2cccc(C)c2C)c1C,0.171
18,C=CCn1c(COc2ccccc2F)nnc1SCC(=O)N1CC(=O)Nc2ccccc21,-0.268
19,Cc1ccc(OCC(=O)NC2=NCCS2)cc1,0.87
20,O=C1CC(Nc2ccc(N3CCOCC3)cc2)C(=O)N1Cc1ccccc1 (stereo unspecified),-0.0748
21,Cc1nnc(Sc2cc(C(=O)NCCCN(C)Cc3ccccc3)c3ccccc3n2)s1,-0.301
22,COc1cccc(NC(=O)CCCOc2cc(=O)n(C)c3ccccc23)c1,-0.157
23,Cc1nnc(NC2(C(F)(F)F)C(=O)Nc3c2c(=O)n(C)c(=O)n3C)s1 (stereo unspecified),0.75

row,Compound,z-score
1,c1ccc(-c2csc3ncnc(NCCCN4CCOCC4)c23)cc1,1.39
2,NC(=O)c1ccc(-c2ncc(-c3ccccc3)o2)cc1,-0.252
3,CC(C)(C)OC(=O)NCCC(=O)Oc1ccc2ccc(=O)oc2c1,-0.0454
4,CN(CC(=O)N1CCN(c2cccc(Cl)c2)CC1)S(=O)(=O)c1cccs1,-0.142
5,Cc1ccc(CSc2nnc(-c3ccco3)n2N)cc1,0.202
6,O=C(N/C(=C\c1cn(-c2ccccc2)nc1-c1ccccc1)C(=O)N1CCOCC1)c1ccccc1,-0.225
7,O=C(c1ccc(Cl)cc1)[C@@H]1[C@@H]2C(=O)N(c3cccc4ccccc34)C(=O)[C@@H]2C2c3ccccc3C=NN21 (stereo partly specified),-0.0838
8,CCOC(=O)C1(P(=O)(c2ccccc2)c2ccccc2)CCC1,0.0878
9,O=C(c1cc2nc(C3CC3)cc(C(F)(F)F)n2n1)N1CCCC1,-0.161
10,FC(F)(F)c1cc(-c2ccco2)nc(N2CCOCC2)n1,0.00504
11,CC(C)(C)C(=O)Nc1ccc(C(=O)OC2CCCCC2)cc1,0.559
12,CS(=O)(=O)N1CCN(c2nc(-c3ccccc3)cs2)CC1,-0.122
13,N/C(Cc1cccs1)=N\OC(=O)COc1ccc(Br)cc1Cl,-0.42
14,CC1(C)Cc2c(sc3c2c(=N)n(Cc2ccco2)c(=O)n3Cc2ccccc2)CO1,-0.918
15,CCCCCCCC(=O)NNC(=O)CC(=O)Nc1ccccc1C(=O)O,-0.243
16,Cc1ccccc1-c1nnc(SCC(=O)Nc2cccc(C)c2C)o1,-0.37
17,O=C(Nc1ccc(Nc2ccccc2)cc1)c1ccc(Br)o1,-0.349
18,Cc1[nH]nc2c1C(c1ccc3c(c1)OCO3)C(C#N)=C(N)O2 (stereo unspecified),-1.05
19,Cc1ccc(-c2c[n+](CC(=O)Nc3cc(=O)n(C)c(=O)n3C)c3n2CCC3)cc1,-0.368
20,CCc1nnc2sc(-c3ccc(NC(=O)c4ccco4)cc3)nn12,-0.459
21,O=C(NCC1CCCO1)c1ccc2c(=O)n(CC3CCCO3)c(=S)[nH]c2c1 (stereo unspecified),0.352
22,CCC(=O)N1CCN=C1SCc1ccccc1Cl,-0.534
23,Cc1ccc(C(=O)/C=C/c2ccccc2)o1,-0.627

row,Compound,z-score
1,COc1ccc(/C=C(\NC(=O)c2cccs2)C(=O)N2CCOCC2)cc1OC,0.0605
2,O=C(OCc1ccc(Br)cc1)c1cccc(-c2nnc(-c3ccccc3)o2)c1,-0.109
3,O=C(CSc1ncn[nH]1)Nc1ccc(Cl)c(Cl)c1,-0.226
4,Cc1cccc(C(=O)Oc2coc(CSc3nnc(NC(=O)C4CC4)s3)cc2=O)c1,0.102
5,COc1ccc(CNC(=O)CSc2nc3ccc(N)cc3s2)cc1,-0.0992
6,CCOc1ccc(Br)cc1S(=O)(=O)Nc1ccc(N2CCOCC2)cc1,1.29
7,O=c1[nH]c2ccc(S(=O)(=O)N3CCCCC3)cc2o1,0.347
8,Clc1cc(Br)ccc1OCCOCCOc1cccc2cccnc12,-0.108
9,CC(/C(O)=C(\C#N)c1nc2ccccc2n1C)N1C(=O)c2ccccc2C1=O (stereo unspecified),0.599
10,CC(=O)Nc1ccc(NC(=O)c2ccc(Cn3cc(Cl)cn3)cc2)cc1,-0.369
11,O=C(/C=C/c1ccc(Cl)cc1)N1CCN(c2ccc(Cl)cc2[N+](=O)[O-])CC1,-0.222
12,O=C(COC(=O)/C=C/c1cccc(Cl)c1)NCCc1ccccc1,-0.15
13,CCOC(=O)c1c(NC(=O)CC2SC(N)=NC2=O)sc2c1CCCC2 (stereo unspecified),-1.02
14,Cc1nc2sc(C(c3cccc(F)c3)N3CCC(C)CC3)c(O)n2n1 (stereo unspecified),-1.47
15,Cc1cc2c(cc1C)N(CC(=O)N1CCCC1)C(=O)CC(c1ccccc1)=N2,-0.328
16,CCc1cc2c(=O)c(-c3nc4ccccc4n3C)coc2c(CN2CCN(C)CC2)c1O,-0.324
17,COc1ccc(NC(=O)/C(=C/c2ccc(OC(C)=O)c(OC)c2)NC(C)=O)cc1,-0.216
18,CCOC(=O)C1=C(C)NC(=O)C(C(N)=O)C1c1ccccc1 (stereo unspecified),0.0883
19,CN(CCCNC(=O)C1CCCN(S(=O)(=O)c2cnc[nH]2)C1)c1ccccc1 (stereo unspecified),0.133
